In all, about 33,000 sequences were measured (“E-score (-0.5 to 0.5)”: median about -0.043, highest 2% from about 0.37 on). Some of the results follow.
target: T1, Upc2 (UniProt Q12151); assay: PBM E-score (8-mer binding enrichment) (E-score (-0.5 to 0.5)); higher = stronger / more preferred TF binding; most listed sequences are background and not binding sites; conditions: protein concentration: 200 nM; construct: GST-full length
T1 sequence: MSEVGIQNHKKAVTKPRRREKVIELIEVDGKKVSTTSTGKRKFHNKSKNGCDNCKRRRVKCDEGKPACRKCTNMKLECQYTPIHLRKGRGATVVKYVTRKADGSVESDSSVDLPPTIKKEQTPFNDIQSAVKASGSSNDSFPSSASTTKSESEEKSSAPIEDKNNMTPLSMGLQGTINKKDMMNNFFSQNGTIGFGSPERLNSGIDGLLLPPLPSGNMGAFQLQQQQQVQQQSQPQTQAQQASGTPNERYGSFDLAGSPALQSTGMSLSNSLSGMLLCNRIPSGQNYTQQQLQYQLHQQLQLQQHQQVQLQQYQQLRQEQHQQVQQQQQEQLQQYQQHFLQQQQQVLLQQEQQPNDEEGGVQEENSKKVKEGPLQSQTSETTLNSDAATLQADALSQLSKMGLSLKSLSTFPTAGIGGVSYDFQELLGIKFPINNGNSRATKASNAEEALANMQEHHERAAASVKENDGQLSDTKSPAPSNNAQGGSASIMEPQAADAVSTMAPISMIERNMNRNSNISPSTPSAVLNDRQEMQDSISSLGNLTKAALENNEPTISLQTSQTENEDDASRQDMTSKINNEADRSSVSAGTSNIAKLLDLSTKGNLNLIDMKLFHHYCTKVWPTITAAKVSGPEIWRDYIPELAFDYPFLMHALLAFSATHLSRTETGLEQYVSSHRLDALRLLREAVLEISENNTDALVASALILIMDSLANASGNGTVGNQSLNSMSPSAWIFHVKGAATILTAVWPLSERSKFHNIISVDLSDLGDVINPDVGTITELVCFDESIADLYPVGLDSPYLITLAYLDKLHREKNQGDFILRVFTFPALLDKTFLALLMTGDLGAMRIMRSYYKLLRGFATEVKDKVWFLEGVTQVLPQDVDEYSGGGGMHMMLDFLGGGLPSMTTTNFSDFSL
Summary of the method: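 E-scores (a modified Wilcoxon-Mann-Whitney statistic) were assigned by the Universal PBM Analysis Suite to every ungapped eight-base word pooled with its reverse complement. The input came from universal all-10-mer Agilent arrays made double-stranded by primer extension and probed with GST-tagged yeast transcription factors at about 100-200 nM. Fluorescent anti-GST detected bound protein, and masliner normalised the scans.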

Sequence	PBM E-score
GCCGATGA	-0.244
GGCTTCAC	-0.233
AAGTGTGT	0.0069
GGAAAGGA	-0.187
GACCTAAC	0.118
AACGCCGG	0.00342
CTTCTCGA	-0.187
ACTGTGTG	-0.182
AACCTAGT	-0.181
ATTTTTAC	0.19
CGTCTATA	0.0202
ACAGTAGT	0.029
GCGTAGAA	0.0848
CACGACCC	-0.102
CCGTCAGA	-0.167
CCGCCGGC	-0.23
CTTTCCCC	-0.213
ACTGAAAC	0.171
ACACAAAA	0.024
ATGTTGTA	0.0483
AGCTGCTG	-0.0358
CTCCCAGA	-0.147
GCCATGGC	-0.412
ACAGAAGC	-0.126
AGCACCCA	-0.02

Sequence	PBM E-score
ATACGAAC	0.472
GAGGGGGA	-0.0209
AGTTCCTA	0.101
ATCATGTG	-0.238
AACTTAGT	-0.0639
ATAATGCG	0.153
GGCTCCCC	-0.136
CGGGATAC	0.18
ACTGATCG	-0.0553
GCCTGGGA	-0.254
AAACTACA	-0.0707
ACGGCAGA	0.186
CATCGAAC	0.135
ACCCACCT	-0.21
AGTCGAAT	-0.164
AACCGTTC	0.271
AGGTGGGC	-0.168
CCTGTCAC	-0.0431
TATAACAA	0.0591
ATTTCGTC	0.0429
CCCGAGGG	0.0883
GTGAAGTA	-0.0282
AATGAGAA	-0.119
CCTGTACC	-0.0294
CCGACAAC	0.124

Sequence	PBM E-score
CGTCACAG	-0.0583
ACGCACAC	0.147
AGTGTGAT	0.118
ATAAGCGA	0.347
ATTGCACA	0.0659
CGCACGAC	0.0333
CGGGGAGC	0.00537
GAGAAGTA	-0.0971
CCTCCGAA	-0.136
GAACAGGC	-0.0321
AATAGCGA	0.112
AAACCACT	-0.0194
GCCCGGAC	-0.125
CTGATTGA	-0.097
ACTCGCTA	0.158
AATACCTG	-0.0757
AATAGGTC	0.00213
ACCGATTA	0.183
ATTCCCAC	-0.232
AATGAGGC	-0.0974
GCAATCAC	-0.041
TAGGCAAA	-0.108
AAAGGCGG	0.00912
GCACTTCC	-0.358
GCACGGTA	-0.0712

Sequence	PBM E-score
CTGACTCC	-0.169
CTCTTAAC	0.165
ACGAGAAC	0.375
ACATTTAA	-0.0133
ATGTACGC	0.187
GCCCGCAC	-0.0934
ACGATATG	0.34
TACTATAA	0.0792
CAGCAACC	-0.116
AACGATGA	0.387
ACCCATAT	0.155
GTTTACGA	0.471
ACTCGGAG	-0.107
CAGGCGCG	-0.171
CCGCTCCG	0.0393
CGAGAGCG	0.227
TATCAAGA	-0.0271
AACGCTTG	0.00299
ACCTGATC	0.0575
TGTATAAA	0.156
AAACCCTC	-0.0554
ACAGAACC	-0.0301
ATGGACAT	-0.0883
CCTCTTTA	-0.0357
GTAGTGTA	0.0913

Sequence	PBM E-score
CCCGTAAG	0.208
ACCATTTC	-0.123
AACCCATC	0.0211
ACTCTGCA	-0.0912
GCGAGCCA	0.0419
CAGATCGG	-0.232
CGTACAGC	0.446
ATTATTGG	-0.185
GCTAAAGC	-0.12
CCTAGATC	-0.189
GACCCAAA	0.0391
GGCAAGAC	-0.0253
CGCCACCC	-0.0595
TAAGTGAA	0.0481
ATCACCTG	-0.276
GCCCTCCC	-0.166
AGCGATAT	0.206
CAAAATAC	0.0567
CCAATTGA	-0.181
GTTATTCA	0.0638
ATGCACTA	0.205
AACAGGCG	-0.0444
GCGTGGCA	-0.0806
ATAATGTA	0.108
CAGTGTTA	0.0185

Sequence	PBM E-score
ACCCGACC	0.186
GATCGACC	-0.0213
TAGGGCAA	-0.27
CAGTCATA	-0.0419
CCGCTTGA	-0.135
CAGCTATG	-0.0431
CATGGACA	-0.178
AGTGACAG	-0.136
GATCAGAA	-0.111
CATTCAGC	-0.213
AAGGGCAA	-0.103
ATACCCCG	-0.0331
CATGTCCA	-0.197
CTACCCAA	-0.0471
GTCGCGCA	-0.0575
CTACAAAG	-0.188
GGCCTGAA	-0.234
GGAAACCA	-0.29
CAATCAAC	-0.0667
ACTTGTCG	0.103
AGTTTCTC	-0.102
AAATGTAA	0.068
ACAGCGTA	0.192
GAAGGACA	0.00331
ACTCTACG	0.311

Sequence	PBM E-score
ATTCTGCG	-0.0373
AATCTGGC	-0.198
GATGCTCA	-0.0681
AACGAGCG	0.442
AAGTCGCG	0.116
TAAAATAA	0.07
CGGACTTC	-0.0609
GCTCGACC	-0.101
ACAGTAAT	-0.0738
GGACAGTA	0.127
CACCTGAA	0.0344
CTGCTTTA	0.00847
TCGGTTCA	0.106
CACCTATC	-0.0764
CTACCGGA	-0.35
ATACCATA	0.108
ACGCCCGT	0.271
CGTTGAGC	0.0875
TGGACGAA	-0.0418
AAATAACT	0.0621
CATTAAGG	-0.167
CGACACCG	0.206
